Test results as given in the supplement of paper PMC12217912.
Some of the results follow. The full chains were built here from the parent and the listed change. Inactive controls read about 0.05.

B1: TEV protease; numbered along this chain (parent)
chain: MGESLFKGPRDYNPISSSICHLTNESDGHTTSLYGIGFGPFIITNKHLFRRNNGTLVVQSLHGVFKVKDTTTLQQHLVDGRDMIIIRMPKDFPPFPQKLKFREPQREERICLVTTNFQTKSMSSMVSDTSCTFPSGDGIFWKHWIQTKDGQCGSPLVSTRDGFIVGIHSASNFTNTNNYFTSVPKNFMELLTNQEAQQWVSGWRLNADSVLWGGHKVFMVKPEEPFQPVKEATQL

Variants of: B1
Assay: raw area under fraction-flipped curve 0-4 h after induction (AUC4h, not background-subtracted), DNA-recorder readout of cleavage of the substrate (dimensionless); higher = more cleavage of the substrate by the protease variant
Conditions: temperature: 34 °C; time window: 0-4 h after rhamnose induction
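Also: Bxb1 expression induced with 0.2% (w/v) L-rhamnose at OD600 near 0.5, cultures sampled hourly, flipped fraction per protease–substrate barcode pair counted by paired-end Illumina sequencing.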

| Variant | area with substrate EALYFQS | area with substrate ECLYFQS | area with substrate EELYFQS | area with substrate EFLYFQS | area with substrate EHLYFQS | area with substrate EKLYFQS | area with substrate EMLYFQS | area with substrate EPLYFQS | area with substrate EQLYFQS | area with substrate ERLYFQS | area with substrate ESLYFQS | area with substrate EVLYFQS | area with substrate EWLYFQS | area with substrate EYLYFQS | area with substrate EDLYFQS | area with substrate EILYFQS | area with substrate EGLYFQS | area with substrate ELLYFQS | area with substrate ETLYFQS |
| --- | --- | --- | --- | --- | --- | --- | --- | --- | --- | --- | --- | --- | --- | --- | --- | --- | --- | --- | --- |
| E195D | 0.0508 | 0.113 | 0.114 | 0.138 | 0.095 | 0.0567 | 0.107 | 0.111 | 0.113 | 0.0886 | 0.122 | 0.0885 | 0.0596 | 0.129 |  |  |  |  |  |
| E195C | 0.12 | 0.0986 | 0.0875 |  | 0.111 |  | 0.0924 | 0.144 | 0.0904 | 0.0919 | 0.0912 | 0.0834 | 0.0572 | 0.111 | 0.108 | 0.0869 |  |  |  |
| M188L | 0.0988 | 0.114 | 0.126 |  |  |  |  |  |  | 0.119 | 0.116 |  | 0.0933 |  | 0.151 |  | 0.0965 | 0.0944 |  |
| M188T | 0.121 | 0.115 | 0.0944 |  | 0.112 |  |  | 0.119 |  | 0.0952 | 0.0999 | 0.0888 |  |  | 0.118 | 0.0992 | 0.0992 |  |  |
| G166S | 0.0965 | 0.0519 | 0.0521 | 0.0664 | 0.0802 | 0.0442 | 0.0596 | 0.0504 | 0.0559 | 0.0422 | 0.0658 | 0.0571 |  |  | 0.046 | 0.0731 | 0.0437 |  |  |
| G166Q | 0.0463 | 0.0412 |  | 0.0425 |  |  | 0.0286 | 0.0608 | 0.0482 | 0.056 | 0.0112 |  |  |  | 0.0484 |  |  |  | 0.0417 |
| G166T | 0.0409 | 0.0517 | 0.0511 |  | 0.0479 |  | 0.0477 |  | 0.0444 |  | 0.0591 | 0.0529 |  |  |  |  | 0.0545 | 0.0532 | 0.0641 |
| V210G | 0.0754 | 0.11 | 0.096 |  | 0.141 | 0.094 |  |  |  |  | 0.0934 | 0.0791 |  |  |  | 0.0707 | 0.0844 |  |  |
| V210D | 0.0617 | 0.0702 | 0.0817 |  |  | 0.0756 | 0.0687 | 0.0939 | 0.075 | 0.074 | 0.0774 | 0.0551 |  |  | 0.102 | 0.0601 |  |  | 0.07 |
| V210K | 0.07 | 0.094 | 0.0793 |  | 0.0737 | 0.0977 | 0.0611 | 0.0982 | 0.0622 | 0.0657 | 0.0423 | 0.113 |  | 0.0668 |  | 0.0604 |  | 0.0587 |  |
| K185P | 0.173 | 0.109 | 0.116 |  | 0.123 |  |  |  | 0.136 | 0.15 |  | 0.117 |  |  | 0.0828 |  |  |  |  |
| I167F | 0.0805 | 0.0718 | 0.121 | 0.0782 | 0.0888 | 0.0682 | 0.0823 | 0.0922 | 0.0801 | 0.076 | 0.0838 | 0.0814 | 0.0812 | 0.118 |  | 0.0604 | 0.099 | 0.0648 | 0.0767 |
| N177V | 0.162 | 0.134 |  | 0.163 |  |  | 0.174 |  | 0.178 |  | 0.196 | 0.124 | 0.132 | 0.146 | 0.177 | 0.11 |  | 0.146 | 0.162 |
| E189D | 0.103 | 0.0822 | 0.134 |  |  |  |  | 0.161 | 0.16 | 0.113 | 0.104 | 0.0703 |  |  | 0.134 | 0.0941 | 0.0522 | 0.105 |  |
